# Test results as given in PubChem BioAssay (NCATS).
# This list was built around the results that the source calls inconclusive (neither active nor inactive); the mix of calls is not that of the screen. Potencies of inconclusive entries are left out as doubtful fits. Calls of active or inactive are those of the source. Calls follow the shape of the dose curve; as a rule, active = well fitted curve in the direction sought with a large enough effect; inconclusive = small, poorly fitted or top-dose-only effect, or another doubt; inactive = no such curve, though single readings can be large; an effect the other way counts as inactive or inconclusive.
# How the values were obtained:
# [1] = target: Rap guanine nucleotide exchange factor 3 (Homo sapiens) (UniProt O95398); experiment: Confirmatory qHTS for antagonist of cAMP-regulated guanine nucleotide exchange factor 3 (EPAC1) (AID 1645880); settings: EPAC1 Rap1B-BODIPY-GDP exchange, fluorescence; activity, negative = inhibition: at 115 µM (top of the series); also: nearly all actives have a fitted effect of over 55% in size;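 as to activity, negative = inhibition: plate controls were DMSO only for no effect and full effect of the ATA control for full effect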
# Sequence of UniProt O95398 (O95398 whole entry, looked up): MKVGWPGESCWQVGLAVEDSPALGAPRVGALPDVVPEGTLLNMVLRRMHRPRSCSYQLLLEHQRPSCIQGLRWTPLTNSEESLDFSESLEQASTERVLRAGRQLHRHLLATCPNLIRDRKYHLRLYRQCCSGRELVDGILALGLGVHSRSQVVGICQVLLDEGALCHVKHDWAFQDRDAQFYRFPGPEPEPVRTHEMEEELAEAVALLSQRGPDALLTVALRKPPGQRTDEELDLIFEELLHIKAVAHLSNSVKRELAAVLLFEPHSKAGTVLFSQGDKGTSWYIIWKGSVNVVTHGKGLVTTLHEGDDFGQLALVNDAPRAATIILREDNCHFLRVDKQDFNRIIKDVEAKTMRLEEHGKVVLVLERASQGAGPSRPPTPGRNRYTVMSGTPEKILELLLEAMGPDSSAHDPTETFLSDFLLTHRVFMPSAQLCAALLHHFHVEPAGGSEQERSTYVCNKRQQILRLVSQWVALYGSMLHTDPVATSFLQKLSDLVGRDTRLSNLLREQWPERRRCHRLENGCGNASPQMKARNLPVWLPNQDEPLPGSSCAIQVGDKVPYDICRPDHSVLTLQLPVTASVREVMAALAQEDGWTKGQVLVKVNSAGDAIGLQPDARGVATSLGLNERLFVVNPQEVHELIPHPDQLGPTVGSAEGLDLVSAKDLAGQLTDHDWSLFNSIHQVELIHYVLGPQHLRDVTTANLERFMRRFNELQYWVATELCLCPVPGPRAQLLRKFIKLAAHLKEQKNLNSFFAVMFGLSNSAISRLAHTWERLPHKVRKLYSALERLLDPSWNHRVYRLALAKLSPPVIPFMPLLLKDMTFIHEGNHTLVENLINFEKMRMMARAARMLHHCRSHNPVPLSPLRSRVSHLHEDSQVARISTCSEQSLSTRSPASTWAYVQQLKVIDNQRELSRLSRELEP
# How it was run: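 Nucleotide exchange uses 100 nM EPAC1, 250 nM RAP1B-BODIPY-GDP and 50 uM GDP, with compounds in a concentration-titration series. After 5 min at room temperature, fluorescence (480 nm ex/540 nm em) is read every 5 min for 30 min. Data are normalized to control ATA and DMSO.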
# [2] = target: Rap guanine nucleotide exchange factor 3 (Homo sapiens) (UniProt O95398); experiment: Confirmatory qHTS for agonist of cAMP-regulated guanine nucleotide exchange factor 3 (EPAC1) (AID 1645881); settings: EPAC1 Rap1B BODIPY-GDP exchange fluorescence; activation: at 154 µM (top of the series), 100% = cAMP control response; also: nearly all actives have a fitted effect of over 75% in size;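 as to activation: EPAC1 catalysed release of BODIPY-GDP from Rap1B seen as fluorescence loss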
# [3] = target: Rap guanine nucleotide exchange factor 4 (Homo sapiens) (UniProt Q8WZA2); experiment: Confirmatory qHTS for antagonist of cAMP-regulated guanine nucleotide exchange factor 4 (EPAC2) (AID 1645885); settings: activity change, negative = inhibition: at 12.7 µM (top of the series) unless noted; also: nearly all actives have a fitted effect of over 25% in size; as to activity change, negative = inhibition: % is scaled to controls: 0 for no effect and ±100 for the full control effect
# Sequence of UniProt Q8WZA2 (Q8WZA2 whole entry, looked up): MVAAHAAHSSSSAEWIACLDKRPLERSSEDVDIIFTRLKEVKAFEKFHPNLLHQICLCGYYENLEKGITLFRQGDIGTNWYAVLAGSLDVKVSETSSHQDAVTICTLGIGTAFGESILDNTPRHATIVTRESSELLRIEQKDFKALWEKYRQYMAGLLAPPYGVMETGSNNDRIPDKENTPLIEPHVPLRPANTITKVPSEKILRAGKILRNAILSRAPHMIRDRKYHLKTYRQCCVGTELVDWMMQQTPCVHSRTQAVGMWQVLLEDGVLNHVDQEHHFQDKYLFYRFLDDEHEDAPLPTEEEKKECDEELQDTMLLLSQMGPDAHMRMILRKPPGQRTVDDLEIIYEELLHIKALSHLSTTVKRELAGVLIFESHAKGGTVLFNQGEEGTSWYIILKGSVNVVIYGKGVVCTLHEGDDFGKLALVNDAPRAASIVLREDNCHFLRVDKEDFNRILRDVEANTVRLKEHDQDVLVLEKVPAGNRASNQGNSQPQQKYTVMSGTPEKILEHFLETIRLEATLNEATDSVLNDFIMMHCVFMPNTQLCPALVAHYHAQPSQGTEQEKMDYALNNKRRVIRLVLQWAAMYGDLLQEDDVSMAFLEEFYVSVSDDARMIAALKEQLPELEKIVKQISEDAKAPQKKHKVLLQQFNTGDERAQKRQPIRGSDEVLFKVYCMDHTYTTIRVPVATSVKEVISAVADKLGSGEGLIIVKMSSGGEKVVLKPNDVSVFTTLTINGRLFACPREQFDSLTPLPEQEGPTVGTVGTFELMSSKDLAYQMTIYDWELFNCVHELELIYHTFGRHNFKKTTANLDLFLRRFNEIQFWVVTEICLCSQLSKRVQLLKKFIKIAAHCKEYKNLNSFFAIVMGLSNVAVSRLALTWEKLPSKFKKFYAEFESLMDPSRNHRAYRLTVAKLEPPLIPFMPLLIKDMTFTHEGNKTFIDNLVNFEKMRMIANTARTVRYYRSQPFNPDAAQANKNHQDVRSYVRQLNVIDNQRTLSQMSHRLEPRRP
# [4] = target: Rap guanine nucleotide exchange factor 3 (Homo sapiens) (UniProt O95398); experiment: Counterscreen qHTS for agonist of cAMP-regulated guanine nucleotide exchange factor 3 (EPAC1) (AID 1645889); settings: EPAC1 Rap1B-BODIPY-GDP exchange, fluorescence; activation: at 154 µM (top of the series) unless noted; also: nearly all actives have a fitted effect of over 40% in size; as to activation: % of control where 0% means no effect
# How it was run: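 Measured: fluorescence of BODIPY-GDP bound to Rap1B, which falls as exchange proceeds. Conditions include 50 uM competing GDP, 5 and 30 min reads, and a later cAMP challenge for antagonist detection.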
# [5] = qHTS for Inhibitors of the vitamin D receptor (VDR): Hit Validation using a Texas Red Assay (AID 602201)
# How it was run: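 Fluorescence polarization (Ex 595/Em 615 nm) of Texas Red (7 nM) with 1.5 uM VDR-LBD and LG19078 (final concentrations). Compounds were incubated for 2 hours at room temperature.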
# [6] = target: Vitamin D3 receptor (Homo sapiens) (UniProt P11473); experiment: qHTS for Inhibitors of the vitamin D receptor (VDR): Hit Validation using a Beta-Lactamase Assay (AID 602202)
# Sequence of UniProt P11473 (P11473 whole entry, looked up, the tested form may be a part): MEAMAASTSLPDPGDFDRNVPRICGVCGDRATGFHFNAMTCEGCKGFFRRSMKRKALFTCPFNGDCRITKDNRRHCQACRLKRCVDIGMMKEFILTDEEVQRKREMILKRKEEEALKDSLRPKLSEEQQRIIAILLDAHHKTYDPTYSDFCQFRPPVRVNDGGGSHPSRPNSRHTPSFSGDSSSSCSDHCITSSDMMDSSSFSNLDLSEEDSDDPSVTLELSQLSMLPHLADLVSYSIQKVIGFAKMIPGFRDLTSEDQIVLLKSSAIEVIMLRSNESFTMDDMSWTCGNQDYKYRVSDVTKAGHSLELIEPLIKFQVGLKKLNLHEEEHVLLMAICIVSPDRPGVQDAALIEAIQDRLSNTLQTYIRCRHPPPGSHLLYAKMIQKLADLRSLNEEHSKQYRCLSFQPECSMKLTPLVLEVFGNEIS
# How it was run: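 Stably transfected HEK293 cells express a VDR–GAL4 DNA-binding-domain fusion driving a UAS beta-lactamase reporter, stimulated by agonist LG190178. Compounds were added 4 h after plating and incubated 18 h. A FRET beta-lactam substrate was then added for 2 h and cleaved substrate emission read at 447 nm.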
# [7] = qHTS for Inhibitors of the vitamin D receptor (VDR): Hit Validation using a Cytotoxicity Assay (AID 602204);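 also: cells co-treated with VDR agonist LG190178 at 300 nM; nearly all actives have a fitted effect of over 75% in size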
# How it was run: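 ATP luminescence, 30 min post-reagent. Exposure: 18 h. Seeding: 20,000 cells/well, 4 h prior to compound. Controls: cycloheximide, DMSO.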
# [8] = target: DNA polymerase iota (Homo sapiens) (UniProt Q9UNA4); experiment: qHTS for Inhibitors of Polymerase Iota: Confirmatory Assay for Cherry-picked Compounds (AID 720496); settings: Pol iota primer extension, TAMRA/BHQ fluorescence
# Sequence of UniProt Q9UNA4 (Q9UNA4 whole entry, looked up): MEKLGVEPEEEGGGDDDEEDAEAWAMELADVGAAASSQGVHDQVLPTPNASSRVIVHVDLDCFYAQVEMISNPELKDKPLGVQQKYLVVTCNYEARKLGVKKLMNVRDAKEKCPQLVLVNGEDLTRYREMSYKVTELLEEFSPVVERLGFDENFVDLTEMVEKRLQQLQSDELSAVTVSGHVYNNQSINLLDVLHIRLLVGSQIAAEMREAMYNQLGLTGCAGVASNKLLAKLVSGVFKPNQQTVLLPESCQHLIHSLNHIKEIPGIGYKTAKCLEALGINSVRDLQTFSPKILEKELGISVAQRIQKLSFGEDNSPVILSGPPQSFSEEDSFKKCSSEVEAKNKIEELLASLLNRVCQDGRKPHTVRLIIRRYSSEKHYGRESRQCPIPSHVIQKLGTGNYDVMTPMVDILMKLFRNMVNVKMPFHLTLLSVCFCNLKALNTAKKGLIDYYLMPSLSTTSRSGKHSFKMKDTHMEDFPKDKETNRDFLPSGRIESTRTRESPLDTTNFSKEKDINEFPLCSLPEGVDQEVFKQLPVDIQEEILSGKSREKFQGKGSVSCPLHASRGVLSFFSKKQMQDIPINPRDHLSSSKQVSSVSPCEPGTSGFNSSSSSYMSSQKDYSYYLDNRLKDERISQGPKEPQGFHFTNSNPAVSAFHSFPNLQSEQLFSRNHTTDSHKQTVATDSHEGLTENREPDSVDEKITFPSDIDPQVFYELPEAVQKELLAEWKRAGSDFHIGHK
# How it was run: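 Buffer-only wells, without enzyme, serve as negative control. Test wells hold 10 nM Pol iota preincubated 15 min with compound before 50 nM final fluorogenic DNA substrate is added; signal is read at 0 and 10 min.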
# [9] = target: Bifunctional 3'-5' exonuclease/ATP-dependent helicase WRN (Homo sapiens) (UniProt Q14191); experiment: qHTS for Inhibitors of WRN Helicase: Confirmatory Assay for Cherry-picked Compounds. (AID 720497); also: nearly all actives have a fitted effect of over 65% in size
# Sequence of UniProt Q14191 (Q14191 whole entry, looked up): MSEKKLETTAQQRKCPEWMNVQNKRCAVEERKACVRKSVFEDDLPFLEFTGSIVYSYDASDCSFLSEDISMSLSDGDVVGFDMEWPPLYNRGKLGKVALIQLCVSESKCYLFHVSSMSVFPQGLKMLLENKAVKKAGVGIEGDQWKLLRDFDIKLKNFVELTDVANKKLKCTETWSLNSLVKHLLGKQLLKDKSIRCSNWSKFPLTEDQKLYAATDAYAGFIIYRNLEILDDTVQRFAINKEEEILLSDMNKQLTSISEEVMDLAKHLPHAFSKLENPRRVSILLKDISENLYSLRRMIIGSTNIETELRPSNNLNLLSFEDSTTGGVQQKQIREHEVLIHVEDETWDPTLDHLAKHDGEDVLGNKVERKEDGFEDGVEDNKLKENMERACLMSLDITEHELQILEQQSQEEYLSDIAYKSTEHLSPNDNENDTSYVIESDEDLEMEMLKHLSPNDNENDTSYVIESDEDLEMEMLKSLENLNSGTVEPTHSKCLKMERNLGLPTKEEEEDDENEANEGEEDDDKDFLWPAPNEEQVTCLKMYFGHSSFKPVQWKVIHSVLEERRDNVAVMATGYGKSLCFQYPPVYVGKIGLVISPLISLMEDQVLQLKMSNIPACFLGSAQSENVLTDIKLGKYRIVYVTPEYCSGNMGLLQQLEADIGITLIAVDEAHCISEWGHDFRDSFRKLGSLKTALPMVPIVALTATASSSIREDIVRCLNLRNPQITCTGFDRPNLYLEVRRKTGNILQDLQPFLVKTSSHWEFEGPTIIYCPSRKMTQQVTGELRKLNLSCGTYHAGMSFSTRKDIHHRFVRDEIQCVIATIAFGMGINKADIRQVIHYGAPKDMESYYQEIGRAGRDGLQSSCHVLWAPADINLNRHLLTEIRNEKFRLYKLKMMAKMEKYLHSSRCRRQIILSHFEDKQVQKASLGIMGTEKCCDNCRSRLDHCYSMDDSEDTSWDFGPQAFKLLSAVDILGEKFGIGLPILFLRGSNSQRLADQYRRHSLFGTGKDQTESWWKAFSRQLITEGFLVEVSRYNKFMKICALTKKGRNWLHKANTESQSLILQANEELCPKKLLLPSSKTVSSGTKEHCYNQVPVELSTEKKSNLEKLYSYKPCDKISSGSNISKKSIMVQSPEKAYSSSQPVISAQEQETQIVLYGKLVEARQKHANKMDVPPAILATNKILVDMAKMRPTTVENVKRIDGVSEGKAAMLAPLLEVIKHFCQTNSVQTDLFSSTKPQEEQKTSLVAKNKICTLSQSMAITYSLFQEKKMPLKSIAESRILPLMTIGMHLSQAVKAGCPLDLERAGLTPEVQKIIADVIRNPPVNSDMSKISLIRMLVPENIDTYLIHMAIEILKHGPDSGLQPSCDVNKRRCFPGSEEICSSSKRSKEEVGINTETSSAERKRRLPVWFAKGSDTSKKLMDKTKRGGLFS
# How it was run: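 Kinetic fluorescence unwinding readout (525/598 nm) of a forked duplex oligonucleotide substrate, 100 nM, with 2 mM ATP and 20 nM WRN. Compounds were added 15 min before substrate at room temperature. Activity was scaled between uninhibited enzyme and buffer-only controls.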
# Potency is read from the fitted curve at half-maximal effect; tags tell the direction and shape of the fitted curve.
smiles,measurement,setting,value
COc1ccc(S(=O)(=O)Nc2ccc(F)cc2)c(C)c1C,Potency,[1],"inconclusive [inhibitor, partial curve]"
same,Potency,[2],"inconclusive [activator, partial curve, poor fit]"
same,Potency,[3],active: 5.36 µM
same,Potency,[4],"inconclusive [activator, full curve]"
CCCCC[C@@H](C)N1C[C@H](COCc2ccccc2)Oc2cc(N3CC[C@H](N(C)C)C3)ccc2S1(=O)=O,Potency,[1],"inconclusive [inhibitor, full curve]"
same,Potency,[2],inactive
same,Potency,[3],"inconclusive [inhibitor, full curve]"
same,Potency,[4],inactive
CNC(=O)c1c(NC(=O)C2=COCCO2)sc(C)c1C,Potency,[1],inactive
same,Potency,[2],inactive
same,Potency,[3],inactive
same,activation,[4],inconclusive: 36.4% [activator]
CCOC(=O)c1c(NC(=O)c2ccc(S(=O)(=O)N(C)C3CCCCC3)cc2)sc2c1CCN(C(C)C)C2,Potency,[1],inactive
same,Potency,[2],active: 89.1 µM
same,Potency,[3],active: 4.26 µM
same,Potency,[4],active: 20 µM
Cc1nc2sc(C(c3cccs3)N3CCN(C(=O)c4ccco4)CC3)c(O)n2n1 (stereo not given),Potency,[1],inactive
same,Potency,[2],inactive
same,Potency,[3],"inconclusive [inhibitor, partial curve]"
same,activation,[4],inconclusive: 63% [activator]
COc1cccc(C(=O)/C=C/c2ccc(OCC#N)c(OC)c2)c1,Potency,[5],"inconclusive [inhibitor, full curve]"
same,Potency,[6],"inconclusive [inhibitor, single point]"
same,Potency,[7],"inconclusive [cytotoxic, partial curve]"
same,Potency,[1],"inconclusive [inhibitor, partial curve]"
same,Potency,[2],inactive
same,Potency,[3],inactive
O=C(CSc1nc2nn(-c3ccccc3)c(=O)c-2c2n1CCCCC2)c1ccc(O)c(O)c1,Potency,[1],active: 2.39 µM
same,Potency,[2],inactive
same,Potency,[3],"inconclusive [inhibitor, partial curve, poor fit]"
same,Potency,[4],"inconclusive [activator, single point]"
CN1C(=O)C2(C(C#N)=C(N)N(c3cc(Cl)cc(Cl)c3)C3=C2C(=O)CC(C)(C)C3)c2ccccc21 (stereo not given),Potency,[1],inactive
same,Potency,[2],inactive
same,Potency,[3],inactive
same,Potency,[4],inactive
Nc1ccc2nc3c(=O)n(CCc4ccccc4)c(=O)[nH]c3nc2c1,Potency,[1],inactive
same,Potency,[2],"inconclusive [activator, partial curve, poor fit]"
same,Potency,[3],active: 42.6 µM
same,Potency,[4],active: 70.8 µM
CCOC(=O)C1(C)C=C(Nc2ccc(C(N)=O)cc2)C(=O)N1c1ccccc1 (stereo not given),Potency,[1],"inconclusive [inhibitor, partial curve]"
same,Potency,[2],"inconclusive [activator, full curve]"
same,Potency,[3],active: 10.7 µM
same,Potency,[4],"inconclusive [activator, single point]"
CCc1ccc(S(=O)(=O)/N=C2\C=C(Nc3cccc(C(=O)O)c3)C(=O)c3ccccc32)cc1,Potency,[8],active: 75.2 µM
same,Potency,[1],active: 37.9 µM
same,Potency,[2],inactive
same,Potency,[3],active: 0.379 µM
same,Potency,[4],"inconclusive [activator, partial curve]"
Cc1ccccc1C(=O)O/N=C(\c1ccccc1)c1ccccn1,Potency,[1],inactive
same,Potency,[2],"inconclusive [activator, partial curve, poor fit]"
same,Potency,[3],"inconclusive [inhibitor, single point]"
same,Potency,[4],"inconclusive [activator, full curve, poor fit]"
CCCN(CC(=O)Nc1ccccc1C)C(=O)c1oc2ccc(OCC)cc2c1C,Potency,[1],"inconclusive [inhibitor, partial curve, poor fit]"
same,Potency,[2],inactive
same,Potency,[3],"inconclusive [inhibitor, partial curve, poor fit]"
same,Potency,[4],inactive
N=C1S/C(=C\c2ccco2)C(=O)N1c1ccc2c(c1)OCO2,Potency,[9],"inconclusive [inhibitor, partial curve]"
same,Potency,[1],"inconclusive [inhibitor, partial curve]"
same,Potency,[2],inactive
same,Potency,[3],"inconclusive [inhibitor, partial curve, poor fit]"
same,Potency,[4],inactive
CC(C)(C)C1CCc2c(sc(NC(=O)CCC(=O)O)c2C(=O)Nc2ccccc2C(F)(F)F)C1 (stereo not given),Potency,[8],"inconclusive [inhibitor, single point]"
same,Potency,[1],active: 42.6 µM
same,Potency,[2],"inconclusive [activator, partial curve, poor fit]"
same,Potency,[3],inactive
same,activation,[4],inconclusive: -57.8% [activator]
